Laboratory results from patent publication US12551573B2, “Compositions and methods for the targeting of PCSK9” (Scribe Therapeutics Inc., priority 2022, dated 2026).

B1: DOMAIN_17662 (protein, listed as Monodelphis domestica)
chain: AQEAVTFKDVAVDFTREEWRLLSPPQKELYKEVMLENAQNLLTVGLPAPPENVISALGAEGSPVDARGRRPEGACCPGEII
B2: DOMAIN_17671 (protein, listed as Monodelphis domestica)
chain: LQASVTFEDVAVDFSAEEWRRLRPLQRELYREVMLENYRSLAWLGLAASKPGVICRLERGEAPREPDPDGPQSGWADCGTG
B3: DOMAIN_30661 (protein, listed as Physeter macrocephalus)
chain: VTFEDVAVNFTLEEWALLDPSQKKLYRDVMRETLRNLASVGEKWEDHDIEDQYKNQGRKLRSHVLERLCESKEGSQCGENFSLIPNL
B4: DOMAIN_17704 (protein, listed as Neomonachus schauinslandi)
chain: ARASLSFEDVAVGFSWEEWQLLAPSQKDLYREVMLENYRNLVSVGYQASKPDSLFQLEQGEPPWTVVGAAQSQTCQEEIWE
B5: DOMAIN_17714 (protein, listed as Monodelphis domestica)
chain: FQGLVTFQDVAVIFSLDEWGHLDPAQRELYREVMLENYQTLACLGLAVSKPDVIAQLEQGGAPWKLEKDIPASPCPGEQYV
B6: DOMAIN_17717 (protein, listed as Physeter macrocephalus)
chain: AHVSLSFRDVAIDLSQEEWECLDPVQRALYRDVMLENYSNLVSLGCSSPKPDVITLLEQEKEPWTVMREGTRSWYTDLESK
B7: DOMAIN_17748 (protein, listed as Leptonychotes weddellii)
chain: LQEAIVFEDVAVYFTRIEWSCLAPHQRALYRDVMLENYGHMASLGFLVAKPALISLLEQGEEPGALILQGTEEQGSTASLC
B8: DOMAIN_17752 (protein, listed as Leptonychotes weddellii)
chain: SQEPVTFEDVAVYFTQNQWASLDPMQRALYLEVMLENYANITSLALPFPKPDLILQLEQGEAPWDLDPWTPLEGEALEGVH
B9: DOMAIN_17798 (protein, listed as Pongo sp.)
chain: VQEPVTFKDVAVDFTQEEWGQLDLVQRTLYRDVMLETYGHLLSVGNQIAKPEVISLLEQGEEPWSVEQACPQRTCSEWVRN
B10: DOMAIN_17871 (protein, listed as Leptonychotes weddellii)
chain: AHGSVMFNDVSIVFSQEEWEYLDLEQRDLYRDVMLENYSNLVSLGCFISKPDVISLLEQGKEPWKVVRKGRRRYPDLETRY
B11: DOMAIN_17873 (protein, listed as Leptonychotes weddellii)
chain: QAEVTFEDVAVLFSREEWGRLGPAQRGLYRDVMLETYRNLVSLGAGPAGPKPGVITQLEQGDEPWVLDAQGAKGKERLRVS
B12: DOMAIN_17890 (protein)
chain: RLESVTFEDVAVYFTQNQWASLDPAQRALYGEVMLENYANVASLVAFPFPKPALISHLERGEAPWGPDPWDTKIPRGISQG
modifications: Cercocebus atys
B13: DOMAIN_17898 (protein, listed as Enhydra lutris)
chain: QEPVTFADVAVLFTPEEWMFLDSAQRSLYRDVMLENYRNLASVGAGDQLGKPSMLSLSEPGEELWAPERRTFPGTRPEPQH
B14: DOMAIN_17903 (protein, listed as Pongo sp.)
chain: EMGLLTFRDIAIEFSLAEWQCLDHAQRNLYRDVMLENYRNLVSLGIAVSKPDLITCLEQNKEPRNIKRNEMVAKHPGREKS
B15: DOMAIN_17925 (protein, listed as Otolemur garnettii)
chain: LPDSLTFTDVAIDFSQDEWEWLSLAQRSLYRKVMLENYMNLVSVGLCISKPDVISLLEQEKEPWMVTEQITRGLCADLEYM
B16: DOMAIN_18048 (protein, listed as Aotus trivirgatus)
chain: AQKVLTFRDVAIEFSLEEWKFLDPAQQNLYRDVMLENYRNLFSIGLTVSKPGLITCLEQRKAPWNLKRREAVDGHIFFAEY
B17: DOMAIN_18083 (protein, listed as Papio anubis)
chain: FQGSVSFKDVTVGFSQEEWQHLDPSQRALYRDVMLENYSNLVSVGYCVHKPEVIFRLEQGEEPWRLEEEFPSQSFPEVWTA
B18: DOMAIN_18100 (protein, listed as Neomonachus schauinslandi)
chain: AQGHVTFEDVAVYFSWEEWGLLDEAQRLLYRDVMLENFSLMASLGLASSMTHEITQLEWWREPFLPPCGVMTAAMPRDGRQ
B19: DOMAIN_18103 (protein, listed as Monodelphis domestica)
chain: PQGSVTFRDVAVNFSQDEWGRLDPSQKELYREVMLENYHNLVCLGLAASKPDVIDQLERGEAPWMPGIGCPDQKIRSDTQE
B20: DOMAIN_18136 (protein, listed as Monodelphis domestica)
chain: IQESVTFKDVSVDFTWEEWRHLDPAQRDLYRNVMLENYENLVSVGISVSTVDMISLLEKRDGPWMPEGEVSGAICPDSLNE
B21: DOMAIN_18155 (protein, listed as Sarcophilus harrisii)
chain: FQESLTFKDVAVDFTYEEWQQLNPDQRYLYRDVMLENYKNLVFLGHQISKPDVISQLEQGKEPWPIEREIFTYSCRDWETK
B22: DOMAIN_18161 (protein)
chain: FQGSVTFTDVAIDFSQEEWRWLQPAQRDLYRCVMLENYGHLVSLGLSISKPDVVSLLEQGKEPWLGKRNVNRDLFSVSESR
modifications: Cercocebus atys
B23: DOMAIN_18203 (protein, listed as Monodelphis domestica)
chain: AQVLVTFQDVAVDFTQEEWRLLDPGQKELYKEVMLDNAQNMLFLGLPVPREDWFSHFHEGGASWMLEGEDPSNSGLDGERR
B24: DOMAIN_18206 (protein, listed as Monodelphis domestica)
chain: PQGLVTFRDVAVDFTREEWRLLSPRQKELYKEVMLENAGNLLSLGLPVPREDVISYFEQKDVPWMLEQKALRSFCPGGPVK
B25: DOMAIN_18214 (protein, listed as Physeter macrocephalus)
chain: APLPLTFEDVAVYFSEQEWRNLEAWQKELYKQVMRTNYEILVSLDDGLPKPELISWLEQGRELFKNWGESQKSGNIICFSA
B26: DOMAIN_18243 (protein, listed as Felis catus)
chain: AQESLTLEDVAVDFSREEWRLLAPAQKDLYRDVMLENYRNLVSVGHQASKPDVLARLERGEEPWAIEEEVRSGTSPETGKV
B27: DOMAIN_18272 (protein, listed as Neomonachus schauinslandi)
chain: SLESDVFTDVAIVFSQEEWEQLAPAQRDLYRDVMLETYSNLVSLGLAIAKPDVISFLEEGKEPWVVEKTSRGGLCPVLESR
B28: DOMAIN_18303 (protein, listed as Monodelphis domestica)
chain: AQEVVTFQDVAVDFTREEWRLLSPPQKELYKEVMLENARNLLSVGLPAPPDDVVSYLEQREGPSMLDQEDLRTCGPEGEIR
B29: DOMAIN_18312 (protein, listed as Monodelphis domestica)
chain: IQGSLTFKDVAVDFTQEEWCLLDHSQKELYLEVMLENVQNLLSVGLPVPREYCTSYFQQEKARWLLEQKCPRSSSPEAETN
B30: DOMAIN_18323 (protein, listed as Monodelphis domestica)
chain: PQESVTFEDVAVYFTQKEWEGLAPAQRALYRDVMLENYGNLVSLAFLFPKPAVISQLEQGEKPWIQTPQRPLDKKKTYKGC
B31: DOMAIN_18325 (protein, listed as Monodelphis domestica)
chain: SQGSITFKDVAVDFTQEEWCLLDPSQKELYREVMLENVQNLLFVETNFEVKEISTKQSLFVEGSGPPRGKNKGPCDFLLRE
B32: DOMAIN_18332 (protein, listed as Monodelphis domestica)
chain: NLEAVTFQDVAVEFTCEEWRHLAPPQKELYRDVMLENYKNLVRLGLAVSKPDVISQLERREAPWMPGGIQRSRCPDWEASC
B33: DOMAIN_18345 (protein, listed as Monodelphis domestica)
chain: SQGSITFKDVAVDFTQEEWCLLDHSQKELYLEVMLENVQNLLSVGLPVPRENFISCLQQGKAPWLLAQKDSRNSCLEAKTN
B34: DOMAIN_18356 (protein, listed as Monodelphis domestica)
chain: B29 chain with E17D, H24N, C53L, Y56C, E60G, K61E, R63P, K69E, C70V, S75C
B35: DOMAIN_18385 (protein, listed as Neomonachus schauinslandi)
chain: SQGLVTFRDVALDFSQEEWEWLDPSQKDLYRDVMLENYRNLVWLGLSISKPNMISLLEQGKEPWMVEKEMSDGQCADWESW
B36: DOMAIN_10870 (protein)
chain: SQHLVTFEDVAVNFTQEEWTLLDQTQRDLYRDVMLENYQNLMALGSESCKPHVNSPLEGAEELRTRARRILQSEFMAESDL
modifications: Vicugna pacos
B37: DOMAIN_18426 (protein, listed as Physeter macrocephalus)
chain: B17 chain with G3E, S4L, S15T, S25T, A28S, H49T, R65I, S72R, T80K, A81I
B38: DOMAIN_18428 (protein, listed as Physeter macrocephalus)
chain: MAFRDVAVDFTQEEWMLLSPAQRSLYREVMLENYSNLVSLGIPFSKPKLITQLEQGKETWREERKCPPANGPPEPKPELHL

Test system: HBEGF locus
Assay type: cell-based, human
Conditions: high-throughput screen of dXR repression of the HBEGF gene
[1] = abundance of each domain in the library before and after diphtheria toxin selection, HEK293T cells
[2] = change in abundance of each domain in the library before and after diphtheria toxin selection

Molecule | Log2 (fold change) [1] | Log2 (fold change) [2]
B1 | 2.7612 | –
B2 | 3.0937 | –
B3 | – | 2.15
B4 | 3.1047 | –
B5 | 2.2724 | –
B6 | 2.9442 | –
B7 | 3.0918 | –
B8 | 3.2541 | –
B9 | 3.3458 | –
B10 | 3.1894 | –
B11 | 3.4076 | –
B12 | 4.2356 | –
B13 | 3.2117 | –
B14 | 2.4683 | –
B15 | 2.7982 | –
B16 | 2.5186 | –
B17 | 2.9283 | –
B18 | 2.3606 | –
B19 | 2.7334 | –

Molecule | Log2 (fold change) [1] | Log2 (fold change) [2]
B20 | 2.7288 | –
B21 | 2.7528 | –
B22 | 2.6663 | –
B23 | 3.7912 | –
B24 | 2.3929 | –
B25 | 2.6389 | –
B26 | 3.5331 | –
B27 | 2.9141 | –
B28 | 2.9174 | –
B29 | 2.8473 | –
B30 | 2.3956 | –
B31 | 2.7636 | –
B32 | 3.4328 | –
B33 | 3.349 | –
B34 | 3.1967 | –
B35 | 2.1472 | –
B36 | – | 2.5964
B37 | 2.8011 | –
B38 | 2.5903 | –

Residue numbers refer to the chain shown, from its start. Where two headings read alike, the source gives them in different places.
